From PubChem BioAssay (NCI)
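Five concentrations, 48 hours, 96-well plates. GI50 marks 50% less growth. TGI: total growth inhibition.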

Test system: NCI-H322M lung
Assay: NCI tumour cell line growth inhibition, 48 h

Compound	GI50	TGI
COc1cc(-c2csc(NC(=O)Nc3ccc(C(F)(F)F)cc3)n2)cc(OC)c1OC	2.1 µM	8.46 µM
CC1(C)N=C(N)N=C(N)N1c1cccc(C(=O)Nc2ccc(S(=O)(=O)F)cc2)c1	–	> 100 µM
C/C(O)=C(\C#N)C(=O)Nc1ccc(C(F)(F)F)cc1	> 100 µM	> 100 µM
CC(=O)c1c(CO[N+](=O)[O-])n([O-])c2ccccc2[n+]1=O	–	> 100 µM
O=C(N/N=C1\C(=O)N(c2nccs2)C(=O)C(=O)C1c1nc2ccccc2s1)c1ccccc1O (stereo not given)	–	> 100 µM
O=C(CCn1[nH]c(=O)c(Cl)c(Cl)c1=O)NNC(=O)C[n+]1ccccc1	–	> 100 µM
Cc1ccc2c(ccc(/C=C\c3cc(C)c4cccnc4c3O)[n+]2C)c1	–	30.2 µM
CN1CCN(c2ccc(NC(=O)c3cncnc3Nc3ccc(OCc4ccccn4)c(Cl)c3)cc2)CC1	4.14 µM	9.19 µM
O=C(O/N=C1/CCC/C1=C\c1ccccc1)c1ccc(Cl)c(Cl)c1	–	> 100 µM
CCCCCCCCCC(=O)OCC1OC(n2cc(F)c(=O)[nH]c2=O)C(NC(=O)OCc2ccccc2)C(OC(=O)CCCCCCCCC)C1O (stereo not given)	–	> 100 µM
COc1cccc(Nc2nc(N)nc(N)c2N)c1	–	> 100 µM
Cc1cc(-c2ccccn2)cc(C)c1/C=C/c1cncc(-c2nn[nH]n2)c1	> 25 µM	> 25 µM
CCOC(=O)C(CC/C=C\c1ccccc1)N1CCC[C@H]1C(=O)OC (stereo not given in full)	–	> 100 µM
CN1C(=O)C(O)CC1c1ccccc1C(F)(F)F (stereo not given)	–	> 100 µM
C#CCN(N=O)C(=O)NCCCCC(NC(C)=O)C(=O)NCc1ccccc1 (stereo not given)	–	> 100 µM
Cc1ccnc2[nH]c(-c3ccc(F)cc3)cc(=O)c12	–	> 100 µM
CCN(CC)C(=S)SC(C(=O)Nc1nnc(-c2ccccc2)o1)c1ccccc1 (stereo not given)	–	56.1 µM
Cc1cccc(C(C)(C)C)c1NC(=O)CCc1nc(=S)[nH][nH]1	–	> 100 µM
COc1ccc(/C=C2\CCC(CCN(C)C)(C3=CCCC3)C2=O)cc1Br (stereo not given)	–	21.5 µM
CCOC(=O)c1cc(Br)c(-c2cc(C)no2)[nH]1	–	> 100 µM
NC(=O)SCCC(N)C(=O)O (stereo not given)	–	> 100 µM
O=C(N/N=C/c1ccc(O)cc1O)c1cccc(Nc2ccnc(C(F)(F)F)c2)c1	0.437 µM	22.3 µM
O=C1C=CC(=O)c2c(O)c(Br)c(Br)c(O)c21	–	35.6 µM
C=C(C(=C)N1N=NC2C3CCC(C3)C21)N1N=NC2C3CCC(C3)C21 (stereo not given)	–	> 100 µM

Compound	GI50	TGI
Nc1n[n+](-c2ccccc2)no1	–	> 100 µM
COC(=O)C12OCC34C(CC5C(C)C6=CC(=O)OC6=CC5(C)C3C(O)C1O)OC(=O)C(O)C24 (stereo not given)	0.778 µM	> 42.9 µM
CC1=C(/C=C/C(C)=C/C=C/C(C)=C/C(=O)O)C(C)(C)CCC1	–	> 100 µM
O=C1c2ccccc2C(=O)C1C(c1ccc(F)cc1)C1C(=O)c2ccccc2C1=O	–	> 100 µM
Cc1ccc(C(=O)/C(=C\c2ccc([N+](=O)[O-])cc2)S(=O)Cc2ccc(Cl)cc2)cc1 (stereo not given)	2.26 µM	6.53 µM
CC(C)(C)OC(=O)NCCNCCNc1ccccc1	–	> 100 µM
CCOc1ccccc1-c1nc2c(s1)C(=O)c1ccccc1C2=O	–	29.3 µM
OCc1cc2ccncc2c2c1[nH]c1ccccc12	–	34.5 µM
CN(C)CCNc1c2ccccc2nc2oc3ccccc3c12	11 µM	72.7 µM
O=C(/C=C/C12c3ccccc3C(c3ccccc31)C1C(=O)NC(=O)C12)c1ccc(F)cc1 (stereo not given)	1.52 µM	2.9 µM
CN(C)c1nncc2n[nH]nc12	–	> 100 µM
NS(=O)(=O)NCCNc1nonc1C(=Nc1ccc(F)c(Br)c1)NO	37.4 µM	> 100 µM
CCN(CCCl)c1cc(CN(C)C)cc(NC(=O)C23CCC(C(=O)Nc4cc(CN(C)C)cc(N(CC)CCCl)c4)(CC2)CC3)c1	–	12.7 µM
[N-]=[N+]=NCCCn1c2c(c3ccc([N+](=O)[O-])cc3c1=O)C(=O)c1cc(F)ccc1-2	7.37 µM	> 30.1 µM
COC(=O)C(C(=O)C(=O)Nc1cccc([N+](=O)[O-])c1)c1nc2ccc([N+](=O)[O-])cc2[nH]c1=O (stereo not given)	–	> 100 µM
CCCCNC(=O)C1C2CCC(O2)C1C(=O)O (stereo not given)	–	> 100 µM
CCCCCCCCCNC(=O)/C=C/c1ccc(O)c(O)c1	24.3 µM	52.5 µM
ON[C@H]1C[C@@H](n2cnc3c(NC4CC4)ncnc32)[C@H](O)[C@@H]1O	–	> 100 µM
COc1nc2c(c(=O)n1C)N=C(c1ccccc1)[C@H](C(CC(=O)c1ccccc1)c1ccccc1)C(c1ccccc1)N2 (stereo not given in full)	–	> 100 µM
Cn1c(N)nc(=O)c2c1N(C1OC(CO)C(O)C1O)CN2Cc1ccccc1 (stereo not given)	–	> 100 µM
CCOC(=O)C1=C(C)N(Cc2ccc(Cl)cc2Cl)C2(O)C=CC(=O)C3=C(O)c4ccccc4C(=O)C312 (stereo not given)	3.91 µM	17.1 µM
OC(c1ccc2c(c1)OCO2)c1ccc2c(c1)OCO2	–	> 100 µM
COc1cc2c(cc1OC)CC1c3cc(OC)c(OC)cc3CCN1CC2 (stereo not given)	–	> 100 µM
